Assay results published in the antibiotic and cytotoxicity screens of Wong et al. (2023).
This is one part of the list.

Each molecule was assayed on HepG2 (assay: cytotoxicity call (relative viability < 0.9)). Conditions: 10 µM.

Structure (SMILES)	cytotoxicity call
CC(=O)OCC=C(C)CCC=C(C)CCC=C(C)CCC=C(C)CCC=C(C)CCC=C(C)CCC=C(C)CCC=C(C)CCC=C(C)C	inactive
NC1(C(=O)O)CCC1	inactive
O=C(Nc1ccccc1)N1c2ccccc2CCc2ccccc21	inactive
C[C@H](CO)N1C[C@H](C)[C@@H](CN(C)C)Oc2cc(C#C[C@@H](C)O)ccc2S1(=O)=O	inactive
COc1ccc(CN(C)C[C@H]2OCCCC[C@@H](C)Oc3ccc(NC(=O)Nc4ccc(OC)cc4)cc3C(=O)N([C@H](C)CO)C[C@H]2C)cc1	active
CNC[C@@H]1Oc2ccc(NS(=O)(=O)c3cn(C)cn3)cc2CC(=O)N([C@@H](C)CO)C[C@H]1C	inactive
CO[C@H]1CN(C)C(=O)c2ccc(NC(=O)C3CC3)cc2OC[C@H](C)N(C(=O)C2CCOCC2)C[C@@H]1C	inactive
C[C@H](CO)N1C[C@H](C)[C@@H](CN(C)S(=O)(=O)c2ccc(Cl)cc2)Oc2ccc(NC(=O)Nc3cccc4ccccc34)cc2C1=O	inactive
Cc1noc(C)c1S(=O)(=O)N(C)C[C@H]1Oc2c(NC(=O)C3CC3)cccc2C(=O)N([C@H](C)CO)C[C@H]1C	inactive
COc1ccc(CNC(=O)C[C@@H]2CC[C@@H]3[C@@H](COc4ccc(NC(=O)C(C)C)cc4C(=O)N3C)O2)cc1	inactive
C[C@@H]1CCCCO[C@H](CN(C)C(=O)Cc2ccccc2)[C@@H](C)CN([C@@H](C)CO)C(=O)c2cc(NC(=O)Nc3ccccc3)ccc2O1	inactive
C[C@@H]1CN([C@@H](C)CO)S(=O)(=O)c2ccc(-c3cncnc3)cc2O[C@@H]1CN(C)C(=O)C1CCCCC1	inactive
COc1ccc(-c2cnc3c(c2)C(=O)N([C@@H](C)CO)C[C@H](C)[C@H](CN(C)C(=O)C2CCOCC2)O3)cc1	inactive
COc1cccc(-n2cc(C(=O)NO)nn2)c1	inactive
O=C(Nc1ccn([C@H]2O[C@H](CO)[C@@H](O)[C@@H]2O)c(=O)n1)c1ccccc1	inactive
C[C@@H]1CCCCO[C@@H](CN(C)Cc2ccc(Cl)c(Cl)c2)[C@@H](C)CN([C@H](C)CO)C(=O)c2cc(NC(=O)c3ccncc3)ccc2O1	inactive
C[C@@H]1CN([C@H](C)CO)S(=O)(=O)c2ccc(C#CCC3CCCC3)cc2O[C@H]1CN(C)C(=O)CN(C)C	inactive
C[C@@H]1CCCCO[C@H](CN(C)S(=O)(=O)c2ccc(F)cc2)[C@@H](C)CN([C@H](C)CO)C(=O)c2cc(NC(=O)Nc3cccc4ccccc34)ccc2O1	inactive
CCN1[C@@H]2c3ccc(-c4ccncc4)c(=O)n3C[C@@H]2[C@@H](CO)[C@@H]1C(=O)NCCc1cn(C)cn1	inactive
COc1ccc(S(=O)(=O)Nc2ccc3c(c2)C(=O)N([C@@H](C)CO)C[C@H](C)[C@@H](CN(C)C(=O)Nc2ccccc2)OCCCC[C@H](C)O3)cc1	inactive

Structure (SMILES)	cytotoxicity call
C[C@@H]1CN([C@H](C)CO)C(=O)Cc2cc(NS(=O)(=O)c3cccs3)ccc2O[C@@H]1CN(C)S(=O)(=O)c1cccs1	inactive
C[C@H]1CN([C@@H](C)CO)S(=O)(=O)c2ccc(C#Cc3cccc(F)c3)cc2O[C@@H]1CN(C)S(=O)(=O)c1cn(C)cn1	inactive
C[C@H](NC(=O)c1c(N)nn2cccnc12)c1cc2cccc(C#Cc3cnn(C)c3)c2c(=O)n1-c1ccccc1	active
C[C@@H]1CCCCO[C@@H](CN(C)Cc2ccc(C(=O)O)cc2)[C@H](C)CN([C@@H](C)CO)C(=O)c2cc(NC(=O)C3CCCCC3)ccc2O1	inactive
Cc1nnsc1C(=O)NCC1(CO)CC1	inactive
COc1ccc(NC(=O)N(C)C[C@@H]2OCc3cn(nn3)CCCC(=O)N([C@H](C)CO)C[C@H]2C)c(OC)c1	inactive
CC(C)(C)c1ccc(OC[C@@H](O)CN)cc1	inactive
COc1ccc(S(=O)(=O)N(C)C[C@H]2Oc3ccc(NC(=O)Cn4cnnn4)cc3CC(=O)N([C@H](C)CO)C[C@@H]2C)cc1	inactive
CCC(=O)N(C)C[C@@H]1Oc2ncc(C#C[C@H](C)O)cc2C(=O)N([C@H](C)CO)C[C@@H]1C	inactive
CO[C@H]1CN(C)C(=O)c2ccc(NS(=O)(=O)c3cn(C)cn3)cc2OC[C@H](C)N(CCC(F)(F)F)C[C@@H]1C	inactive
CCOC(=O)CSc1nc(=O)cc(C)[nH]1	inactive
COc1ccc(NC(=O)N(C)C[C@H]2Oc3ccc(NC(=O)Nc4cccc5ccccc45)cc3CC(=O)N([C@@H](C)CO)C[C@@H]2C)cc1	inactive
C=C1C(c2ccc(C)cc2)=CCc2cc(C)cc(C)c21	inactive
CC(=O)N=c1sc(S(N)(=O)=O)nn1C	inactive
COc1ccc(S(=O)(=O)Nc2ccc3c(c2)C(=O)N([C@H](C)CO)C[C@@H](C)[C@H](CN(C)C(=O)Nc2ccc(C(F)(F)F)cc2)OCCCC[C@H](C)O3)cc1	inactive
O=C(Cc1ccncc1)NCC[C@@H]1CC[C@H](NC(=O)C2CCOCC2)[C@@H](CO)O1	inactive
Cn1nc(O)c(=O)[nH]c1=S	inactive
CCS(=O)(=O)N1C[C@]2(CN(C2)C(=O)Nc2c(noc2C)C)c2c([nH]c3cc(ccc23)OC)[C@H]1CO	inactive
C[C@H](CO)N1C[C@H](C)[C@@H](CN(C)S(=O)(=O)c2ccccc2F)Oc2ncc(C#Cc3cccnc3)cc2C1=O	inactive
COc1ccc(NC(=O)Nc2ccc3c(c2)C(=O)N([C@@H](C)CO)C[C@@H](C)[C@@H](CN(C)Cc2ccccc2)OCCCC[C@H](C)O3)cc1	inactive
